# Data as given in US20260069656A1, “Nutritive Polypeptides and Formulations Thereof, and Methods of Production and Use Thereof” (Axcella Health Inc., priority 2013, published 2026).
# How the values were obtained:
# [1] = Thermostability, ProteoStat Thermal Shift Stability Kit, temperature of aggregation; format: physicochemical; details: NS = protein not soluble
# Description: Thermostability. The thermostability of proteins in a buffer cocktail of Citric Acid and Dibasic Sodium Phosphate over a pH range of 2.8 to 7.1 (preparation described above in Table E31B) was determined using the ProteoStat® Thermal Shift Stability Kit (Enzo Life Sciences) according to the manufacturer's standard protocol. Briefly, protein solutions (˜10 mg/ml) containing 1× ProteoStat TS Detection Reagent were heated from 25° C. to 95° C. at a rate of 0.5° C. per 30 sec using a real-time PCR (rtPCR) thermocycler (BioRad) equipped with a plate reader (SynergyMx, Biotek) while monitoring the fluorescence with a Texas Red filter.
# [2] = Intact half-life during simulated gastric fluid (SGF) digestion; details: SGF pH 1.5, pepsin:polypeptide 1:20 w/w, 37° C.; produced in E. coli unless otherwise noted
# [3] = pH solubility screen in Citric Acid / Dibasic Sodium Phosphate buffers; format: physicochemical
# Description: pH Solubility. […] Protein was either lyophilized and then resuspended in buffer cocktail mixtures, or concentrated and then spiked into buffer cocktail mixtures at a final protein concentration of 5 to 30 mg/ml. As a control, protein was also dissolved in a solution of 8 M urea. Protein solutions were shaken for 10 min at room temperature. Turbidity of proteins was determined by measuring the absorbance of protein solutions at 650 nm. The protein solution was then centrifuged for 10 min at 1100×g to pellet undissolved or precipitated protein. The soluble protein fraction (supernatant) was sampled and protein concentration was measured by one or more of the following methods: Coomassie Plus Protein Assay (Pierce), Chip electrophoresis, gel electrophoresis, and/or absorbance at 280 nm. The pH range over which select proteins remained greater than 80% soluble as determined by Bradford and the A650 value are listed in Table E31C.
molecule,measurement,setting,value
"SEQID-00103: nutritive polypeptide naturally produced in Rice, recombinantly expressed in E. coli (protein, listed as Oryza sativa) MEGLTSEQMVAFQEAFLLFDKNGDGCITLEELAAVTRSLGLEPTDQELNDMMREVDTDGNGIIDFQEFLSLIARKMKDGDGDEELKEAFEVLDKDQNGFISPTELRTVMTNLGEKMTDEEVEQMIREADTDGDGQVNYDEFVIMMKNAERKISG",Tagg pH 3.7,[1]; pH 3.7,45.5
same,Tagg pH 3.9,[1]; pH 3.9,41.5
same,Tagg pH 4.3,[1]; pH 4.3,37.5
same,Tagg pH 4.6,[1]; pH 4.6,59.5
same,Tagg pH 5.0,[1]; pH 5.0,61
same,Tagg pH 5.6,[1]; pH 5.6,62
same,Tagg pH 6.0,[1]; pH 6.0,67.5
same,Tagg pH 6.5,[1]; pH 6.5,95
same,Tagg pH 7.1,"[1]; pH 7.1, heated 25° C. to 95° C.",>95
same,SGF Half-life (t½),[2],0.3 min
same,pH Range where Protein is >80% detected as Soluble and A650 <1 OD: Low,[3]; lower pH of range,5.6
same,pH Range where Protein is >80% detected as Soluble and A650 <1 OD: High,[3]; upper pH of range,7.1
"SEQID-00103 (HEK293): nutritive polypeptide (protein, listed as Oryza sativa) MEGLTSEQMVAFQEAFLLFDKNGDGCITLEELAAVTRSLGLEPTDQELNDMMREVDTDGNGIIDFQEFLSLIARKMKDGDGDEELKEAFEVLDKDQNGFISPTELRTVMTNLGEKMTDEEVEQMIREADTDGDGQVNYDEFVIMMKNAERKISG",SGF Half-life (t½),[2],<2 min
"SEQID-00105 (BS): nutritive polypeptide (protein, listed as Saccharomyces cerevisiae) MSSNLTEEQIAEFKEAFALFDKDNNGSISSSELATVMRSLGLSPSEAEVNDLMNEIDVDGNHQIEFSEFLALMSRQLKSNDSEQELLEAFKVFDKNGDGLISAAELKHVLTSIGEKLTDAEVDDMLREVSDGSGEINIQQFAALLSK",SGF Half-life (t½),[2],0.5 min
"SEQID-00105 (HEK293): nutritive polypeptide (protein, listed as Saccharomyces cerevisiae) MSSNLTEEQIAEFKEAFALFDKDNNGSISSSELATVMRSLGLSPSEAEVNDLMNEIDVDGNHQIEFSEFLALMSRQLKSNDSEQELLEAFKVFDKNGDGLISAAELKHVLTSIGEKLTDAEVDDMLREVSDGSGEINIQQFAALLSK",SGF Half-life (t½),[2],<2 min
